Patent US11618753B2 (priority 2018, dated 2023)

The compounds below were run on MLKL phosphorylation, HT29-L23 human colorectal adenocarcinoma cells (assay: cells). Settings: read-out: pMLKL HCS Cell Assay (IC50, uM).

Going from COc1ncc(-c2cc(CN3CCC(F)(F)CC3)c3c(N)ncnn23)cc1C(=O)N[C@@H]1CN(C(=O)c2ccccc2Cl)C[C@@H]1F [Example 1240, 5-{4-amino-5-[(4,4-difluoropiperidin-1-yl)methyl]pyrrolo[2,1-f][1,2,4]triazin-7-yl}-N-[(3R,4S)-1-(2-chlorobenzoyl)-4-fluoropyrrolidin-3-yl]-2-methoxypyridine-3-carboxamide] to COc1ncc(-c2cc(CN3CCC(F)(F)CC3)c3c(N)ncnn23)cc1C(=O)NC1CN(C(=O)c2ccccc2F)CCC1F (stereo not drawn) [Example 1664, 5-{4-amino-5-[(4,4-difluoropiperidin-1-yl)methyl]pyrrolo[2,1-f][1,2,4]triazin-7-yl}-N-[4-fluoro-1-(2-fluorobenzoyl)piperidin-3-yl]-2-methoxypyridine-3-carboxamide], the IC50 rises from 0.0013 µM to 0.076 µM (58-fold). The first is the more potent here.

Cc1ncc(-c2cc(C(F)(F)F)c3c(N)ncnn23)cc1C(=O)NCCN1CCCC(c2ccccc2)C1 (stereo not drawn) [Example 179, 5-[4-amino-5-(trifluoromethyl)pyrrolo[2,1-f][1,2,4]triazin-7-yl]-2-methyl-N-[2-(3-phenylpiperidin-1-yl)ethyl]pyridine-3-carboxamide] and COc1ncc(-c2cc(C(F)(F)F)c3c(N)ncnn23)cc1C(=O)NC1CN(CCC2CC2)CC1F (racemic) [Example 190, 5-[4-amino-5-(trifluoromethyl)pyrrolo[2,1-f][1,2,4]triazin-7-yl]-N-[1-(2-cyclopropylethyl)-4-fluoropyrrolidin-3-yl]-2-methoxypyridine-3-carboxamide] are within 1.5-fold of each other in IC50: 0.048 µM for the first, 0.037 µM for the second.

Compared with Cc1ccc(-c2cc(C(F)(F)F)c3c(N)ncnn23)cc1C(=O)N[C@@H]1CN(C(=O)c2cnccc2C(F)(F)F)C[C@@H]1F [Example 1009, 5-[4-amino-5-(trifluoromethyl)pyrrolo[2,1-f][1,2,4]triazin-7-yl]-N-[(3R,4S)-4-fluoro-1-[4-(trifluoromethyl)pyridine-3-carbonyl]pyrrolidin-3-yl]-2-methylbenzamide], Nc1ncnn2c(-c3ccc(OC(F)(F)F)c(C(=O)N[C@@H]4CN(C(=O)CC(F)(F)F)C[C@@H]4F)c3)cc(C(F)(F)F)c12 [Example 1049, 5-[4-amino-5-(trifluoromethyl)pyrrolo[2,1-f][1,2,4]triazin-7-yl]-N-[(3R,4S)-4-fluoro-1-(3,3,3-trifluoropropanoyl)pyrrolidin-3-yl]-2-(trifluoromethoxy)benzamide] is 4.2-fold higher in IC50: 0.024 µM for the first, 0.1 µM for the second. The first is the more potent here.

First: COc1ncc(-c2cc(C(F)(F)F)c3c(N)ncnn23)cc1C(=O)N[C@@H]1CN(C(=O)c2cnc(C)cn2)C[C@@H]1F [Example 1213, 5-[4-amino-5-(trifluoromethyl)pyrrolo[2,1-f][1,2,4]triazin-7-yl]-N-[(3R,4S)-4-fluoro-1-(5-methylpyrazine-2-carbonyl)pyrrolidin-3-yl]-2-methoxypyridine-3-carboxamide]
Second: COc1ncc(-c2cc(C(F)(F)F)c3c(N)ncnn23)cc1C(=O)N[C@@H]1CN(C(=O)OCCC(F)(F)F)C[C@@H]1F [Example 1444, 3,3,3-trifluoropropyl (3R,4S)-3-{5-[4-amino-5-(trifluoromethyl)pyrrolo[2,1-f][1,2,4]triazin-7-yl]-2-methoxypyridine-3-amido}-4-fluoropyrrolidine-1-carboxylate]
The IC50 of the first is 4.2-fold higher: 0.02 µM for the first, 0.0048 µM for the second.

In the case of Nc1ncnn2c(-c3cc(C(=O)N[C@@H]4CN(C(=O)CC(C(F)(F)F)C(F)(F)F)C[C@@H]4F)c(F)cc3F)cc(C(F)(F)F)c12 [Example 783, 5-[4-amino-5-(trifluoromethyl)pyrrolo[2,1-f][1,2,4]triazin-7-yl]-2,4-difluoro-N-[(3R,4S)-4-fluoro-1-[4,4,4-trifluoro-3-(trifluoromethyl)butanoyl]pyrrolidin-3-yl]benzamide], the IC50 is reported as 0.0087 µM.
